Measurements as given in ChEMBL document CHEMBL4888484, “Replenishing the malaria drug discovery pipeline: Screening and hit evaluation of the MMV Hit Generation Library 1 (HGL1) against asexual blood stage Plasmodium falciparum ,using a nano luciferase reporter read-out” (2022).
Out of some 150,000 compounds screened, about 540 (0.36%) showed an effect of 50% or more. This is one part of the list.

test system: Plasmodium falciparum; assay: Primary screen in NF54 nanoGlo assay, in single point, at 2uM, 72h; a lower Z score goes with more inhibition; assay type: functional, Erythrocyte; conditions: timepoint 72 hour

| SMILES | % Inhibition [%] | Z score |
| --- | --- | --- |
| COCCO[C@H]1CCN(C(=O)NC2Cc3ccccc3C2)C1 | -11 | 2.19 |
| CCC1CCCCN1CC(=O)N(C1CCCC1)C1CCS(=O)(=O)C1 (stereo unspecified) | -10 | 1.53 |
| COc1cccc(N2CCN(C(=O)c3cnc(N4CCOCC4)nc3C)CC2)c1 | -20 | 3.12 |
| Cc1nnsc1CN(C)Cc1noc(-c2ccco2)n1 | -11 | 2.01 |
| CCCc1ccc(CN2CCOC[C@@H]2CC(=O)Nc2ccc3c(c2)OCO3)o1 | -7 | 0.69 |
| CN1CC[C@H](CNC(=O)c2ccccc2NCc2ccccn2)C1 | -15 | 2.12 |
| COC(=O)CN(CCC#N)C[C@H]1CCOC1 | -14 | 1.22 |
| O=C(NC[C@H]1CCCO1)c1ccc(-c2cnc(=O)[nH]c2)cc1 | 3 | -0.6 |
| O=C1CN(C(=O)NC2CCCC2)CCN1 | -10 | 1.41 |
| CC1CCC(N2C[C@@H]3C[C@H]2C(=O)NC[C@H]2O[C@H](CCOc4cc(-c5ccncc5)ccc4C(=O)N3)CC[C@@H]2O)CC1 (stereo partly specified) | -2 | 0.3 |
| CC(C)COc1nc(-c2ccc(F)cc2)n(-c2cccc(NC(=O)c3ccco3)c2)n1 | -7 | 0.85 |
| CN(C)C(=O)[C@@H]1CN(CC2=CCCCC2)CCO1 | -1 | 0.11 |
| Cc1noc(C)c1C(=O)N1CC2(C[C@@H](c3nc(-c4ccncc4)no3)N(C)C2)C1 | -6 | 0.7 |
| Cc1nc2c(c(N3CC[C@](C)(O)[C@@H](O)C3)n1)CCC2 | 6 | -1.19 |
| CCS(=O)(=O)N1CCN(CCNC(=O)OC(C)(C)C)CC1 | -13 | 1.95 |
| N#Cc1cccc(C(=O)N[C@@H]2COCC[C@@H]2Oc2ccccc2)c1 | -8 | 1.3 |
| O=C(Nc1ccc2c(c1)OCO2)N1CCN(C(=O)c2nsc3ccccc23)CC1 | 4 | -0.72 |
| COC(=O)[C@H](C)Nc1cnn(CC(F)(F)F)c1 | -9 | 1.31 |
| O=C(CN1CCCCCC1)Nc1ccnn1CC1CCCCC1 | 11 | -1.23 |
| Cc1cc(N2CC(=O)N[C@H](CO)C2)nc(-c2cccs2)n1 | 0 | 0.04 |
| C[C@@H](Cn1cccn1)NC(=O)c1cc(Br)c[nH]1 | -2 | 0.3 |
| Cn1c(=O)n(CCc2ccccc2)c2ccc(C(=O)NCc3ncc[nH]3)cc21 | -4 | 0.48 |

| SMILES | % Inhibition [%] | Z score |
| --- | --- | --- |
| CC(C)c1nc([C@@H]2CC3(CN(C(=O)CCc4ccccc4)C3)CN2C)no1 | -14 | 1.6 |
| CCOc1cc(CN(C(=O)[C@@H]2CNC(=O)C2)C2CCCCC2)ccc1OC | 6 | -1.22 |
| Cc1ccc(C)c(CN(C)C[C@H](O)COCCOC(C)C)c1 | -13 | 1.96 |
| O=C(NC1CCNCC1)[C@@H]1COc2ccccc2O1 | -12 | 1.9 |
| Cn1c(CCNC(=O)Cc2cccs2)nc2cccnc21 | -17 | 2 |
| CC(=O)N1CCN(c2c(C)cnc3c2c(=O)n(CC(=O)Nc2ccccc2F)c(=O)n3C)CC1 | 2 | -0.33 |
| O=C(Nc1c(S(=O)(=O)c2ccccc2)c2nc3ccccc3nc2n1CCc1ccccc1)c1ccc(Cl)cc1 | 101 | -8.88 |
| Cc1ccsc1[C@H]1CCN(Cc2cccnc2N)C[C@@H]1O | -6 | 1.12 |
| O=C(NC[C@H]1CCCO1)c1ccc(-c2ccc3c(c2)OCCO3)s1 | -5 | 0.52 |
| COc1cccc2c1CC[C@]2(N)C(=O)N1CCN(C(C)=O)CC1 | -5 | 0.76 |
| Cn1ccnc1C(NC(=O)Nc1cc(C2(C)CCCC2)on1)c1nccn1C | 9 | -0.91 |
| CCOc1cccc(Cl)c1Cn1cnn(C)c1=O | 2 | -0.31 |
| Cc1ccc(OC(=O)c2cccc(C(=O)Oc3ccc(C)cc3)n2)cc1 | -8 | 1.35 |
| CCCC(CCC)N[C@H](CO)Cc1ccccc1 | 12 | -1.61 |
| Fc1cc(Cl)cnc1N1CCC(CN2CCOCC2)CC1 | -10 | 1.05 |
| Cc1ccc(C)c(-c2nc(Cn3c(=O)c4c(C)cc(C)nc4n(C)c3=O)c(C)o2)c1 | 34 | -4.77 |
| O=C(Nc1cc(C(F)(F)F)c[nH]c1=O)[C@@H]1Cc2ccccc2O1 | -8 | 1.3 |
| CC1CC(c2ccccc2)C(C)N1C(=O)c1ncncc1Cl (stereo unspecified) | -7 | 0.74 |
| Cc1[nH]c(=O)[nH]c(=O)c1N(CCF)CCF | 4 | -0.78 |
| COCCCNc1ncccc1OC(F)F | 2 | -0.33 |
| O=C(NCCc1ccc(N2CCCC2)cc1)c1ccccc1 | -1 | 0.17 |
